Experimental data published in a collection of fitness landscapes (doi:10.1126/science.1257360).
Some of the results follow.

B1: PhoQ; a variant is named by its letters at X, in order, P23837 (parent)
chain: MKKLLRLFFPLSLRVRFLLATAAVVLVLSLAYGMVALIGYSVSFDKTTFRLLRGESNLFYTLAKWENNKLHVELPENIDKQSPTMTLIYDENGQLLWAQRDVPWLMKMIQPDWLKSNGFHEIEADVNDTSLLLSGDHSIQQQLQEVREDDDDAEMTHSVAVNVYPATSRMPKLTIVVVDTIPVELKSSYMVWSWFIYVLSANLLLVIPLLWVAAWWSLRPIEALAKEVRELEEHNRELLNPATTRELTSLVRNLNRLLKSERERYDKYRTTLTDLTHSLKTPLXXLQXXLRSLRSEKMSVSDAEPVMLEQISRISQQIGYYLHRASMRGGTLLSRELHPVAPLLDNLTSALNKVYQRKGVNISLDISPEISFVGEQNDFVEVMGNVLDNACKYCLEFVEISARQTDEHLYIVVEDDGPGIPLSKREVIFDRGQRVDTLRPGQGVGLAVAREITEQYEGKIVAGESMLGGARMEVIFGRQHSAPKDE

Variants of: B1
Assay: enrichment ratio after two sorts for PhoP signalling (ratio (wild type AVST 3.29)); higher = more functional
Conditions: with PhoP (E. coli)

Point of comparison: NGAS, enrichment ratio 0.365. Against it:
- WGMF — lower, ≤ 0.25
- ESEP — lower, ≤ 0.25
- AFDH — lower, ≤ 0.25
- NVDR — lower, ≤ 0.25
- CIYH — lower, ≤ 0.25
- DNSM — lower, ≤ 0.25
- IMQH — lower, ≤ 0.25
- ALLA — lower, 0.346
- VWNP — lower, ≤ 0.25
- WHTK — lower, ≤ 0.25
- RPER — lower, ≤ 0.25
- RTNS — lower, ≤ 0.25
- PYSG — lower, ≤ 0.25
- KHTT — lower, ≤ 0.25
- LDAL — lower, ≤ 0.25
- VRKD — lower, ≤ 0.25
- YMYT — lower, ≤ 0.25
- AECD — higher, 17
- RCTM — lower, ≤ 0.25
- WWCP — lower, ≤ 0.25
- WNDV — lower, ≤ 0.25
- YLFL — lower, ≤ 0.25
- FVRT — lower, ≤ 0.25
- PYVE — lower, ≤ 0.25
- PKHD — lower, ≤ 0.25
- IGDD — lower, ≤ 0.25
- LNFC — lower, ≤ 0.25
- QDWY — lower, ≤ 0.25
- QLLF — lower, ≤ 0.25
- GCHW — lower, ≤ 0.25
- RVAG — lower, ≤ 0.25
- GMEY — lower, ≤ 0.25
- YSLP — lower, ≤ 0.25
- STMC — higher, 8.81
- NRSL — lower, ≤ 0.25
- IQWD — lower, ≤ 0.25
- KITV — lower, ≤ 0.25
- PGEC — lower, ≤ 0.25
- VDYA — lower, ≤ 0.25
- DESE — lower, ≤ 0.25
- PGLP — lower, ≤ 0.25
- FHAR — lower, ≤ 0.25
- YAKN — lower, ≤ 0.25
- EQDF — lower, ≤ 0.25
- LGSR — lower, ≤ 0.25
- IWQR — lower, ≤ 0.25
- HTIN — lower, ≤ 0.25
- FEGA — lower, ≤ 0.25
- DSEH — lower, ≤ 0.25
- WYYK — lower, ≤ 0.25
- HIAK — lower, ≤ 0.25
- FCSD — lower, ≤ 0.25
- NLSP — lower, ≤ 0.25
- MCTW — lower, ≤ 0.25
- VLGG — lower, ≤ 0.25
- INNH — lower, ≤ 0.25
- DWVP — lower, ≤ 0.25
- MACV — lower, ≤ 0.25
- FVFM — lower, ≤ 0.25
- FWSK — lower, ≤ 0.25
- PGAI — lower, ≤ 0.25
- GSLQ — higher, 6.06
- YRCP — lower, ≤ 0.25
- IKWY — lower, ≤ 0.25
- DPHT — lower, ≤ 0.25
- PDKK — lower, ≤ 0.25
- VHVE — lower, ≤ 0.25
- PQQF — lower, ≤ 0.25
- QGWI — higher, 22.5
- NKCT — lower, ≤ 0.25
- VYKQ — lower, ≤ 0.25
- WRVG — lower, ≤ 0.25
- QPFC — lower, ≤ 0.25
- SGKG — lower, ≤ 0.25
- SHWE — lower, ≤ 0.25
- SEDQ — lower, ≤ 0.25
- FLGA — lower, ≤ 0.25
- DIEY — lower, ≤ 0.25
- FYMA — lower, ≤ 0.25
- GQWV — lower, ≤ 0.25
- TYAI — lower, ≤ 0.25
- VRWA — lower, ≤ 0.25
- ECDH — higher, 3.63
- YHAG — lower, ≤ 0.25
- RTWF — lower, ≤ 0.25
- IIAP — lower, ≤ 0.25
- QGFD — lower, ≤ 0.25
- TERL — lower, ≤ 0.25
- ASFI — higher, 3.08
- DLSM — lower, ≤ 0.25
- QKKA — lower, ≤ 0.25
- THPF — lower, ≤ 0.25
- VQGG — lower, ≤ 0.25
- IEVD — lower, ≤ 0.25
- DGSP — lower, ≤ 0.25
- MICG — higher, 2.37
- QYVI — lower, ≤ 0.25
- YDII — lower, ≤ 0.25
- LPGY — lower, ≤ 0.25
- PVRH — lower, ≤ 0.25
- DGVL — lower, ≤ 0.25
- DHAM — lower, ≤ 0.25
- ELTA — lower, ≤ 0.25
- EGDS — lower, ≤ 0.25
- TGNF — higher, 1.29
- HRNF — lower, ≤ 0.25
- AGGN — lower, ≤ 0.25
- VIPL — lower, ≤ 0.25
- WYDD — lower, ≤ 0.25
- PPHA — lower, ≤ 0.25
- IQRN — lower, ≤ 0.25
- DMVM — lower, ≤ 0.25
- GINM — lower, ≤ 0.25
- PIAN — lower, ≤ 0.25
- RRME — lower, ≤ 0.25
- MNWQ — lower, ≤ 0.25
- RDCL — lower, ≤ 0.25
- IMSM — lower, ≤ 0.25
- RVNW — lower, ≤ 0.25
- QDIM — lower, ≤ 0.25
- YKCM — lower, ≤ 0.25
- VWPP — lower, ≤ 0.25
- YFTN — lower, ≤ 0.25
- GICL — higher, 9.48
- NVEW — lower, ≤ 0.25
- MKLA — lower, ≤ 0.25
- DDIN — lower, ≤ 0.25
- TELD — higher, 13.4
- MECY — higher, 4.09
- TNIR — lower, ≤ 0.25
- AYSK — lower, ≤ 0.25
- LAHP — lower, ≤ 0.25
- RMDS — lower, ≤ 0.25
- KYHW — lower, ≤ 0.25
- DFCC — lower, ≤ 0.25
- RFRY — lower, ≤ 0.25
- AHPT — lower, ≤ 0.25
- HGHM — lower, ≤ 0.25
- MGED — lower, ≤ 0.25
- VLNA — lower, ≤ 0.25
- ADKT — lower, ≤ 0.25
- DFQC — lower, ≤ 0.25
- MQWC — lower, ≤ 0.25
- EGLW — lower, ≤ 0.25
- VCKP — lower, ≤ 0.25
- HIQI — lower, ≤ 0.25
- SYCE — higher, 2.48
- PRWG — lower, ≤ 0.25
- DFFK — lower, ≤ 0.25
- EFLS — lower, ≤ 0.25
- FRRP — lower, ≤ 0.25
- RMAS — lower, ≤ 0.25
- TGPP — lower, ≤ 0.25
- HNRD — lower, ≤ 0.25
- VHNN — lower, ≤ 0.25
- QCFH — lower, ≤ 0.25
- SMFV — lower, ≤ 0.25
- DDRF — lower, ≤ 0.25
- RDQT — lower, ≤ 0.25
- QIMF — lower, ≤ 0.25
- EVGP — lower, ≤ 0.25
- DHFI — lower, ≤ 0.25
- VFVY — lower, ≤ 0.25
- FYRT — lower, ≤ 0.25
- GIPV — lower, ≤ 0.25
- TGSH — higher, 8.48
- VMIH — lower, ≤ 0.25
- KPLI — lower, ≤ 0.25
- NEKA — lower, ≤ 0.25
- DAEV — lower, ≤ 0.25
- VGMS — lower, ≤ 0.25
- SNRP — lower, ≤ 0.25
- YFVM — lower, ≤ 0.25
- INRN — lower, ≤ 0.25
- MLNM — lower, ≤ 0.25
- DRAD — lower, ≤ 0.25
- YSPM — lower, ≤ 0.25
- IECY — lower, ≤ 0.25
- IAFA — lower, ≤ 0.25
- PWWK — lower, ≤ 0.25
- LMLR — lower, ≤ 0.25
- IDNT — lower, ≤ 0.25
- MMGL — higher, 0.506
- WTFH — lower, ≤ 0.25
- DDQR — lower, ≤ 0.25
- HNPR — lower, ≤ 0.25
- CHLM — lower, ≤ 0.25
- SWQC — lower, ≤ 0.25
- LPYS — lower, ≤ 0.25
- PIKL — lower, ≤ 0.25
- YDQF — lower, ≤ 0.25
- AVYT — higher, 0.57
- EGPA — lower, ≤ 0.25
- ENIT — lower, ≤ 0.25
- KYLQ — lower, ≤ 0.25
- SIWW — lower, ≤ 0.25
- PRSV — lower, ≤ 0.25
- PLTD — lower, ≤ 0.25
- FMKV — lower, ≤ 0.25
- WHTW — lower, ≤ 0.25
- DTRE — lower, ≤ 0.25
- HKGS — lower, ≤ 0.25
- ISDY — lower, ≤ 0.25
- FESW — lower, ≤ 0.25
- ERWG — lower, ≤ 0.25
- KLMC — lower, ≤ 0.25
- CFAA — lower, ≤ 0.25
- YWKA — lower, ≤ 0.25
- FIGH — lower, ≤ 0.25
- TGMP — lower, ≤ 0.25
- NGVA — lower, ≤ 0.25
- QYLF — lower, ≤ 0.25
- YIGM — higher, 0.38
- IVIK — lower, ≤ 0.25
- LQSQ — lower, ≤ 0.25
- RGYP — lower, ≤ 0.25
- FSPF — lower, ≤ 0.25
- WWSL — lower, ≤ 0.25
- RLFQ — lower, ≤ 0.25
- INGN — lower, ≤ 0.25
- ANGY — higher, 7.14
- AHQV — lower, ≤ 0.25
- RVQL — lower, ≤ 0.25
- KCTC — lower, ≤ 0.25
- TNYH — lower, ≤ 0.25
- DMHD — lower, ≤ 0.25
- SEMC — higher, 18
- QLSM — higher, 3.11
- LWDT — lower, ≤ 0.25
- SSCT — higher, 8.97
- PMSK — lower, ≤ 0.25
- KMTF — lower, ≤ 0.25
- LYPT — lower, ≤ 0.25
- NKHE — lower, ≤ 0.25
- WGWL — lower, ≤ 0.25
- FPLP — lower, ≤ 0.25
- NWDA — lower, ≤ 0.25
- LAKD — lower, ≤ 0.25
- TYTC — lower, ≤ 0.25
- PGKL — lower, ≤ 0.25
- QARK — lower, ≤ 0.25
- NNEP — lower, ≤ 0.25
- PSAC — lower, ≤ 0.25
- SYRV — lower, ≤ 0.25
- HWGS — lower, ≤ 0.25
- KPYW — lower, ≤ 0.25
- ENRT — lower, ≤ 0.25
- GGMP — lower, ≤ 0.25
- GPAN — lower, ≤ 0.25
- FDDH — lower, ≤ 0.25
- HHRY — lower, ≤ 0.25
- YQNE — lower, ≤ 0.25
- QAGC — higher, 4.31
- SQTV — higher, 10.4
- SGRF — lower, ≤ 0.25
- PIVR — lower, ≤ 0.25
- ACQV — lower, ≤ 0.25
- TWFW — lower, ≤ 0.25
- YKAN — lower, ≤ 0.25
- NYHP — lower, ≤ 0.25
- FYHW — lower, ≤ 0.25
- AWSQ — lower, ≤ 0.25
- QIPP — lower, ≤ 0.25
- LLRM — lower, ≤ 0.25
- EGRN — lower, ≤ 0.25
- RCCA — lower, ≤ 0.25
- PKVK — lower, ≤ 0.25
- GAMV — lower, ≤ 0.25
- INKD — lower, ≤ 0.25
- PLQP — lower, ≤ 0.25
- EFQE — lower, ≤ 0.25
- SVNH — higher, 3.33
- TGIC — lower, ≤ 0.25
- AIPG — lower, ≤ 0.25
- IKMF — lower, ≤ 0.25
- VNCF — higher, 1.95
- MSQE — lower, ≤ 0.25
- ESMQ — lower, ≤ 0.25
- CIFL — lower, ≤ 0.25
- QSDI — higher, 14.8
- MYAD — lower, ≤ 0.25
- KQYA — lower, ≤ 0.25
- IKSL — lower, ≤ 0.25
- TDRN — lower, ≤ 0.25
- INHL — lower, ≤ 0.25
- MRCQ — lower, ≤ 0.25
- PPPW — lower, ≤ 0.25
- PYFQ — lower, ≤ 0.25
- FKGF — lower, ≤ 0.25
- FERF — lower, ≤ 0.25
- RWYL — lower, ≤ 0.25
- YRCR — lower, ≤ 0.25
- SVFT — lower, ≤ 0.25
- GLWV — lower, ≤ 0.25
- AATY — lower, ≤ 0.25
- EYWG — lower, ≤ 0.25
- NHPP — lower, ≤ 0.25
- SLTM — higher, 12.5
- WCFI — lower, ≤ 0.25
- YTKH — lower, ≤ 0.25
- HKCA — lower, ≤ 0.25
- FGRH — lower, ≤ 0.25
- NMPM — lower, ≤ 0.25
- TYLP — lower, ≤ 0.25
- AQHS — lower, ≤ 0.25
